Experimental data taken from PubChem BioAssay AID686978 (National Center for Advancing Translational Sciences (NCATS), 2013).
Hit rate of the full screen: of about 420,000 compounds, about 64,000 (15%) were called active. This list was built around the results that the source calls inconclusive (neither active nor inactive); the mix of calls is not that of the screen. The call rests on the fitted dose curve; in most records, active means well fitted inhibition curve with a large enough effect; inconclusive means small, poorly fitted or top-dose-only effect; inactive means flat fitted curve, though single readings scatter. Potencies of inconclusive entries are left out as doubtful fits.

Assay: qHTS for Inhibitors of human tyrosyl-DNA phosphodiesterase 1 (TDP1): qHTS in cells in absence of CPT; further: nearly all actives have a fitted effect of over 55% in size
Details: DT40 Tdp1-/- hTDP1 cells, no CPT, ATP luminescence, 48 h; activity change, negative = growth inhibition: at 46.2 µM (top of the series) unless noted
Method in brief: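 Growth of hTDP1-complemented DT40 Tdp1-knockout cells is measured by ATP luminescence after at least 48 hr compound exposure at 37 °C, with DMSO substituting for the 20 nM CPT used in the parallel screen.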
On the % scale 0 is the no-effect control and ±100 the full control effect; potency means the concentration at half of the fitted maximal effect; tags describe the fitted curve by direction and shape.

Row | SMILES | Potency | activity change, negative = growth inhibition
1 | CC1(C)C(=O)C2(CCCCC2)C(=O)OC1c1cccc([N+](=O)[O-])c1 (centres undefined) | inconclusive [inhibitor, partial curve, poor fit] | –
2 | CCc1ccc(-n2c(=O)c3cccnc3n2CC(=O)N(CC)c2cccc(C)c2)cc1 | active: 13 µM | –
3 | COc1ccc(-n2c(SCC(=O)NCC3CCCO3)nc3ccccc32)cc1 (centres undefined) | inactive | –
4 | [O-]/C(=C(\C(=S)Nc1ccc(SC(F)F)cc1)[n+]1ccccc1)c1ccc(Cl)cc1Cl | active: 10.3 µM | –
5 | Cc1ccccc1C(=O)Nc1ccccc1C(=O)OCc1cc(=O)n2nc(C3CC3)sc2n1 | inconclusive [inhibitor, full curve, poor fit] | –
6 | COC(=O)c1ccc(CSc2nnc3n(Cc4ccccc4OC)c(=O)c4ccccc4n23)o1 | inconclusive [inhibitor, single point] | –
7 | Cc1cccc(-c2cc(C(=O)Nc3ccncc3)c3ccccc3n2)c1 | inconclusive [inhibitor, partial curve, poor fit] | –
8 | C[C@H](O)[C@@H]1C(=O)N2CCc3c([nH]c4ccccc34)[C@@H]2C[C@@H]1N(C)C(=O)Nc1cc(Cl)cc(Cl)c1 | inconclusive [inhibitor, single point] | –
9 | COc1ccc(CNC(=S)Nc2ccc3nc(N4CCOCC4)cc(C)c3c2)cc1 | inconclusive [inhibitor, partial curve] | –
10 | Cc1ccc(S(=O)(=O)OCC(=O)Nc2ccc(C(=O)O)c(O)c2)cc1 | inactive | –
11 | COc1ccccc1COC(=O)c1cccc(S(=O)(=O)N2CCCC2)c1 | inconclusive [inhibitor, single point] | –
12 | Cc1ccc(S(=O)(=O)N(C)CC(=O)NCc2ccncc2)cc1 | inactive | –
13 | CC(=O)Nc1ccc(CN2CCN(C3CCCCC3)C(CCO)C2)cc1 (centres undefined) | inactive | –
14 | Cc1cccc(-c2nnc(SCC(=O)O)n2Cc2ccccc2)c1 | inactive | –
15 | CN1C(=O)CSc2ccc(NC(=O)Nc3ccccn3)cc21 | inconclusive [inhibitor, single point] | –
16 | Cc1ccc(S(=O)(=O)N2CCC(C(=O)OC(C)C(=O)N(C)c3ccccc3)CC2)cc1C (centres undefined) | inconclusive [inhibitor, single point] | –
17 | CN(O)C(=O)Nc1ccc([N+](=O)[O-])cc1 | inconclusive [inhibitor, single point] | –
18 | CCc1ccc(NC(=O)CSc2nnc(-c3nonc3NC(C)=O)n2-c2ccccc2)cc1 | inconclusive [inhibitor, single point] | –
19 | Cc1onc(-c2ccccc2Cl)c1C(=O)NCc1nc(-c2ccccc2)no1 | active: 9.2 µM | –
20 | CCn1cc2nc(SCc3cccc(C(F)(F)F)c3)n(CCc3ccccc3)c(=O)c2n1 | active: 13 µM | –
21 | COc1ccc(F)cc1C(=O)C1CCCN(Cc2ccc(Sc3nncn3C)o2)C1 (centres undefined) | inactive | –
22 | CCSc1oc(-c2cccs2)nc1S(=O)(=O)c1ccccc1 | inconclusive [inhibitor, single point] | –

Row | SMILES | Potency | activity change, negative = growth inhibition
23 | CCOC(=O)c1[nH]c(C)c(C(=O)N2CCN(c3ccc(OC)cc3)CC2)c1C | inconclusive [inhibitor, single point] | –
24 | CCOC(=O)CSc1nc(-c2ccc(OC)cc2)ns1 | inconclusive [inhibitor, partial curve, poor fit] | –
25 | COc1cccc(OCc2cc(C(=O)N(C)C3CC(C)(C)NC(C)(C)C3)no2)c1 | inactive | –
26 | O=C1c2ccccc2C(=O)N1c1nc(-c2ccc(Cl)cc2)cs1 | inconclusive [inhibitor, single point] | –
27 | CCN(CC)C(=S)SCC(=O)Nc1cccc(C(F)(F)F)c1 | inconclusive [inhibitor, single point] | –
28 | O=C(N/N=C/c1c[nH]c2ccccc12)c1cc(-c2cccc3ccccc23)n[nH]1 | inconclusive [inhibitor, single point] | –
29 | CC(CCc1ccccc1)NC(=O)c1nnc(Cc2ccc(Cl)cc2)o1 (centres undefined) | inconclusive [inhibitor, single point] | –
30 | CCOC(=O)N1CCN(C(=O)c2cc3cc(Br)ccc3oc2=O)CC1 | inactive | –
31 | Cc1cc(Nc2ccccc2)nn1C(=O)c1ccc(Br)cc1 | inconclusive [inhibitor, single point] | –
32 | N#CCCn1cc(C(=O)Nc2ccc([N+](=O)[O-])cc2)c(-c2cc3ccccc3o2)n1 | inactive | –
33 | Cc1c(CCNC(=O)c2ccc(C(F)(F)F)cc2)sc2nc(-c3ccc(F)cc3)nn12 | inconclusive [inhibitor, full curve] | –
34 | Nc1ccc(C(=O)N/N=C/c2sc(N3CCOCC3)nc2-c2ccccc2)cc1 | inconclusive [inhibitor, single point] | –
35 | CCN1C(=C2C(=O)c3ccccc3C2=O)C=Cc2ccccc21 | inactive | –
36 | COc1ccc(CCNC(=O)Cn2c(C)c3cnn(-c4ccccc4)c(=O)c3c2C)cc1OC | inactive | –
37 | C#CCOc1c(/C=C\c2nc(O)c([N+](=O)[O-])c(=O)[nH]2)cc(Br)cc1OC | inactive | –
38 | CCOc1ccc(NC(=O)Cn2cnc3nc4c(cc3c2=O)CCCC4)cc1 | inactive | –
39 | CC(C)=CCc1c(O)ccc(C(=O)Cc2ccccc2)c1O | inconclusive [inhibitor, single point] | –
40 | COC(=O)CCNC(=O)Cc1c(C)n(C(=O)c2ccc(Cl)cc2)c2ccc(OC)cc12 | inconclusive [inhibitor, single point] | –
41 | Cc1ccc(NC(=O)N2CCCN(C(=O)OC(C)(C)C)CC2)cc1Cl | inconclusive [inhibitor, single point] | –
42 | COc1ccccc1CN1C2CCCC1CC(NC(=O)/C=C/c1ccccc1)C2 (centres undefined) | inconclusive [inhibitor, single point] | –
43 | COc1cccc(C(=O)C2CCCN(C/C=C/c3ccccc3OC)C2)c1 (centres undefined) | – | inconclusive: -36.4% [inhibitor]
44 | Cc1cccc(NC(=O)COC(=O)C2C3CC4OC(=O)C2C4C3)c1C (centres undefined) | inactive | –
